# The supplement of paper PMC9334596
# Where “and” joins values, the source holds several entries; their conditions need not be identical. Identical values can stand only once. In all, about 5,300 compounds were measured (“PER2::LUC luminescence relative to vehicle control”: median about 0.96, highest 2% from about 1.3 on). The list shows a part of the results.
# Tested on: mPer2Luc MEF
# Experiment: PER2::LUC luminescence relative to vehicle control (fold of vehicle); higher = higher PER2::LUC reporter signal
# Details: 10 µM
# In short: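 Compounds from commercial libraries were added at 10 μM to 384-well plates seeded 48 h earlier with ~3000 mPer2Luc mouse embryonic fibroblasts per well. The cells were kept in DMEM with 10% FBS at 37 °C and 5% CO2. Luminescence was read with ONE-Glo 24 h and 30 h after treatment, then an alamarBlue viability assay was run. Values are PER2::LUC luminescence relative to vehicle control, as fold change.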
Structure (SMILES),PER2::LUC luminescence (time after treatment 24 h),PER2::LUC luminescence (time after treatment 30 h)
Cc1cc(-c2nc(-c3ccc(OC(F)(F)F)cc3)no2)nn1Cc1ccnc(N2CCN(C3CC3)CC2)c1,0.775,0.735
N#CCC(C1CCCC1)n1cc(-c2ncnc3[nH]ccc23)cn1 (stereo not given),1.26,1.51
N[C@H](C(=O)O)[C@H](O)C(=O)O,0.998,0.825
CN(C)CCCSc1ccccc1NC(=O)/C=C/c1ccccc1,1.01,0.871
O=C(O)CN(CCOCCOCCN(CC(=O)O)CC(=O)O)CC(=O)O,0.947,0.933
CNC(=C[N+](=O)[O-])NCCSCc1ccc(CN(C)C)o1,0.953 and 1.09,1.01 and 1.09
C=CCc1ccc(O)c(-c2ccc(O)c(CC=C)c2)c1,1.12,1.04
CC(C)C[C@H](NC(=O)[C@@H](O)[C@H](N)Cc1ccccc1)C(=O)O,1.12 and 0.518,1.01 and 1.14 and 0.974
COC(=O)[C@H]1[C@H]2C[C@@H]3c4[nH]c5cc(OC)ccc5c4CCN3C[C@H]2C[C@@H](OC(=O)c2cc(OC)c(OC)c(OC)c2)[C@@H]1OC,0.745,0.806
COc1cc2c(cc1OC)-c1cc3ccc(OC)c(OC)c3c[n+]1CC2,1.01 and 1.03,0.946 and 0.923
C[C@H](NC(=O)Cc1cc(F)cc(F)c1)C(=O)N[C@@H]1C(=O)N(C)c2ccccc2-c2ccccc21,0.982,0.869
Cc1cc(N2CCOCC2)ccc1Nc1nc(NC2CCCCC2)c2[nH]cnc2n1,0.759,0.708
O=C(O)c1ccc(Nc2ncc3c(n2)-c2ccc(Cl)cc2C(c2c(F)cccc2F)=NC3)cc1,0.91,0.904
Nc1c2c(nc3c1CCC3)CCCC2,0.989,0.887
OCc1ccc(-c2ccc(-c3ccc(CO)s3)o2)s1,1.48,1.62
N[C@H](Cc1ccccc1)C(=O)O,0.973,0.973
O=c1c(-c2ccc(O)cc2)coc2cc(O)cc(O)c12,1.07,1.06
CCCc1nc(C)c2c(O)nc(-c3cc(S(=O)(=O)N4CCN(CC)CC4)ccc3OCC)nn12,0.872,0.86
O=C(NOCCO)c1cc(CN2OCCCC2=O)c(F)c(F)c1Nc1ccc(I)cc1F,0.301,0.24
O=C1C=CC(=C(c2ccc(O)cc2)c2ccc(O)cc2)C=C1,0.697,0.767
CCN(CC)CCNC(=O)c1ccc(NC(C)=O)cc1,0.955 and 1 and 1.18,1.05 and 0.966 and 1.11
CCCCCCN(CCCCCC)C(=O)Cc1c(-c2ccc(F)cc2)[nH]c2ccccc12,0.972 and 0.993,0.97 and 0.924
CCOc1ccn(-c2ccc(F)cc2)c(=O)c1C(=O)Nc1ccc(Oc2ccnc(N)c2Cl)c(F)c1,1.11,1.11
CCC(=O)NS(=O)(=O)c1ccc(-c2c(-c3ccccc3)noc2C)cc1,1.17,1.12
CCn1cc(-c2ccnc3[nH]c(-c4cccc(CN(C)C)c4)cc23)c(-c2ccc(NC(=O)N(C)C)cc2)n1,0.071,0.065
